43 compounds from PMC4336329 (PLoS ONE, 2015) can be followed below.

Out of some 310,000 compounds screened, about 2,200 (0.71%) showed an effect of 50% or more. Effects have a minus sign here. The list shows a part of the results.

Sequence of human ether-à-go-go-related gene (hERG) potassium channel (Q12809 whole entry, looked up): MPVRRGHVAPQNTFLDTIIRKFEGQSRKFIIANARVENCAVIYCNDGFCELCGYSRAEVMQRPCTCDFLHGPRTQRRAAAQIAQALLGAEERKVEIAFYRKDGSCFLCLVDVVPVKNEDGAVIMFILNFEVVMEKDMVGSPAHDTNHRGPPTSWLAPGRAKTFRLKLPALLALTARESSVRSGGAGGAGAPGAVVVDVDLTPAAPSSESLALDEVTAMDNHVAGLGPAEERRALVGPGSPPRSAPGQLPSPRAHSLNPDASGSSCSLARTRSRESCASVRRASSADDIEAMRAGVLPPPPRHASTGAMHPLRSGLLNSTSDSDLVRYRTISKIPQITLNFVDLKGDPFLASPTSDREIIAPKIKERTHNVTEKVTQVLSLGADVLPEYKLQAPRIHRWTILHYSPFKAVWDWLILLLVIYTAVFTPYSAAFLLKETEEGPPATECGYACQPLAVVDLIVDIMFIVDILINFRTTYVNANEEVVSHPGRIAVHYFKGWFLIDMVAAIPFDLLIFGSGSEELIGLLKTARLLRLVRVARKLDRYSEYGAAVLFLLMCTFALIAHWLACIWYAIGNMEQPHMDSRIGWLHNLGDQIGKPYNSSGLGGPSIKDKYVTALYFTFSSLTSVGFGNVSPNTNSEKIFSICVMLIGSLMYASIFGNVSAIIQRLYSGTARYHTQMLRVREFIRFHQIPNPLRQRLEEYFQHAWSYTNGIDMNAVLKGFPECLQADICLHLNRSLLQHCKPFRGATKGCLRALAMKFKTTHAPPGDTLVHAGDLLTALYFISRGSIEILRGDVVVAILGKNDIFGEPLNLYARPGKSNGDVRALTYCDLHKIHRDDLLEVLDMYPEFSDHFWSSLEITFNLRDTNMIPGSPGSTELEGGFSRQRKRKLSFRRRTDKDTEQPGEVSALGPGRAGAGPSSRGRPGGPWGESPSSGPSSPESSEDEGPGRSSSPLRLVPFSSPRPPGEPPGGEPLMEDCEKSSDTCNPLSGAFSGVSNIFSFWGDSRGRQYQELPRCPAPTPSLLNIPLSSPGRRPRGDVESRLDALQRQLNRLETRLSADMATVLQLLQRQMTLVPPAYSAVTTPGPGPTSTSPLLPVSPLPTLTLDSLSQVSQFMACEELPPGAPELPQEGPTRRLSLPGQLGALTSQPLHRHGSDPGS

This assay has as its target human ether-à-go-go-related gene (hERG) potassium channel (human, UniProt Q12809). Kind of assay: primary screen, population patch clamp on CHO cells stably expressing hERG.
As to `Cc1ccc(/C=N/NC(=O)c2nc3nc(C)cc(C)n3n2)cc1`, the “hERG current change (%, negative = inhibition) at 1uM” value is recorded as 10.6%.
The figure for `O=C(Nc1ccn(Cc2cccc3ccccc23)n1)c1cccnc1` is 8.02%; for `Cc1nc2nc[nH]n2c(=O)c1CC(=O)O` it is 7.68%.
The figure for `COc1cc(NC(=O)Cn2cnc(S(=O)(=O)N3CCCC3)c2)cc(OC)c1OC` is 12.4%; for `Cc1cccc(C(=O)NCC(c2ccco2)N2CCc3ccccc32)c1` (stereo not shown) it is 0.922%.
With `COc1cc(NC(=O)C2CC(=O)NC3=C2C(=O)CC(C)(C)C3)c(OC)cc1Cl` (stereo not shown), the “hERG current change (%, negative = inhibition) at 1uM” value came out at 4.42%.
The figure for `COCCNC(=O)C(=O)NCC1OCCN1S(=O)(=O)c1ccc(F)cc1` (stereo not shown) is 10.8%; for `C/C(CC(=O)Nc1cccc(Cl)c1)=N\NC(=O)Cc1ccc(Cl)cc1` it is 0.952%; for `O=c1c(Cl)c(N2CCCCC2)cnn1-c1nc2ccccc2[nH]1` it is -12.3%.
The figure for `COc1cc(Br)ccc1NC(=O)c1ccccc1-c1ccccc1C(=O)O` is 19.3%; for `Cc1cc(Cl)ccc1OCCCC(=O)OCC(N)=O` it is 1.7%; for `CCOc1cc(CNn2cnnc2)cc(Cl)c1OCC(=O)NC(C)(C)C` it is 7.82%.
With `Cc1ccc(S(=O)(=O)N(C)c2ccc(C(=O)NCC3(N(C)C)CCCCC3)cc2)cc1` the figure was -43.9%.
With `COc1ccccc1C(=O)Nc1ccon1`, the “hERG current change (%, negative = inhibition) at 1uM” value is recorded as -0.0061%.
The figure for `C/C(=N\NC(=O)c1nnn(-c2nonc2N)c1C(C)C)c1cc(C)sc1C` is 15.7%; for `CC(=O)COc1c(-c2ccco2)oc2ccccc2c1=O` it is 11.6%; for `O=C(CN(CC1CCCO1)S(=O)(=O)c1ccc(S(=O)(=O)NC2CC2)cc1)Nc1ccccc1` (stereo not shown) it is -2.75%.
The figure for `CSc1ccccc1OCc1cc(C(=O)N2CCN(c3ncccn3)CC2)no1` is 11.7%; for `Cc1cccc(Nc2ncnc3c2cnn3C)c1` it is 3.12%; for `COCCn1c(-c2ccc(Cl)cc2Cl)nc2c(c(=O)c3ccccc3n2C)c1=O` it is 13.6%.
The figure for `CCO[C@H]1OC(C(=O)O)=C[C@@H](c2ccc3c(c2)OCO3)[C@@H]1CCCO` is 15.8%.
Regarding `CS(=O)(=O)Nc1ccc(C(=O)NCCSCc2ccco2)cc1`, the “hERG current change (%, negative = inhibition) at 1uM” value is -19.4%.
Regarding `Fc1ccc(N2CCN(Cc3nnc(-c4ccccc4)o3)CC2)cc1`, the “hERG current change (%, negative = inhibition) at 1uM” value was 4.54%.
With `COC(=O)c1ccc(CNC(=O)c2coc3ccccc3c2=O)cc1` the figure was 10.5%; with `O=C(N/N=C/c1c(O)ccc2ccccc12)c1cccnc1`, 12.6%; with `Cc1nc(NC(=O)CCN2C(=O)C3CC=CCC3C2=O)sc1C` (stereo not shown), 4.96%.
Consider `Cc1ccc(NC(=S)Nc2c(C)n(C)n(-c3ccccc3)c2=O)cc1`, for which the “hERG current change (%, negative = inhibition) at 1uM” value came out at 1.01%.
With `CCN(C(=O)c1cc2c(=O)n3ccccc3nc2n1C)C1CCCCC1`, the “hERG current change (%, negative = inhibition) at 1uM” value came to 11.5%.
As to `O=C(O)CCc1ccc(-c2ccc(Cl)cc2)n1CC(=O)O`, the “hERG current change (%, negative = inhibition) at 1uM” value was determined as 13.9%.
With `O=C(Nn1cnnc1)c1cc(-c2ccccn2)nc2ccccc12`, the “hERG current change (%, negative = inhibition) at 1uM” value came to 5.15%.
For `COc1ccc(-c2csc3nc(-c4cccnc4)nc(N4CCC(C(N)=O)CC4)c23)cc1OC`, the “hERG current change (%, negative = inhibition) at 1uM” value was found to be 1.65%.
The figure for `Cc1c(S(=O)(=O)NC2CCCCC2)c(=O)n(C)c(=O)n1C` is 3.74%; for `CSc1ccc(CN2CCN(C(=O)COc3ccc(C)cc3)CC2)cc1.O=C(O)C(=O)O` it is -19.3%; for `CC(C)NC(=O)Cn1c(SCC(=O)c2ccc(F)cc2)nc2ccccc21` it is 20.2%.
The figure for `O=C1CC(N2CCC(O)(c3ccc(Cl)cc3)CC2)C(=O)N1` (stereo not shown) is 2.43%; for `CC(=O)c1cccc(N=Nc2c(C)[nH]c3ccccc23)c1` it is 21.1%.
On to `CCCCCC1CC(CC(=O)NC(=S)Nc2ccccc2Cl)C(=O)O1` (stereo not shown), for which the “hERG current change (%, negative = inhibition) at 1uM” value is listed as 3.16%.
In the case of `COc1cc2c(cc1OC)C1(NCC2)C(=O)Nc2ccccc21` (stereo not shown), the “hERG current change (%, negative = inhibition) at 1uM” value is reported as 3.44%.
With `Cc1ccc(NC(=O)Nc2ccc(F)c(Cl)c2)cc1` the figure was 7.76%.
The figure for `Cc1ccc(S(=O)(=O)NC(CC(C)C)C(=O)Nc2nccs2)cc1` (stereo not shown) is 13%.
As for `CNC(=O)COc1ncnc2scc(-c3ccc(F)cc3)c12`, the “hERG current change (%, negative = inhibition) at 1uM” value worked out at 13.9%.
On to `O=C(CN1C(=O)CCOc2ccccc21)Nc1cccc(S(=O)(=O)N2CCOCC2)c1`, for which the “hERG current change (%, negative = inhibition) at 1uM” value was 2.46%.
The figure for `CCc1c(C)nc(SCC(=O)N2CCCCC2CC)[nH]c1=O` (stereo not shown) is 8.43%.
